Assay results reported in publication PMC6360386.
No constants are given. Whether binding was seen depends on the method and setting. In cells and extracts the contact can be indirect. Some results given as binding are weak or reduced against the parent protein; the word gives no strength.

The chains behind the UniProt entries cited, without tags or fusion partners. Where a name states a change or a piece, a line headed by the entry shows the natural chain unless it says otherwise. A line that says so, or that is headed by a name, gives the form on record, which may keep a tag or linker.
UniProt Q8K045: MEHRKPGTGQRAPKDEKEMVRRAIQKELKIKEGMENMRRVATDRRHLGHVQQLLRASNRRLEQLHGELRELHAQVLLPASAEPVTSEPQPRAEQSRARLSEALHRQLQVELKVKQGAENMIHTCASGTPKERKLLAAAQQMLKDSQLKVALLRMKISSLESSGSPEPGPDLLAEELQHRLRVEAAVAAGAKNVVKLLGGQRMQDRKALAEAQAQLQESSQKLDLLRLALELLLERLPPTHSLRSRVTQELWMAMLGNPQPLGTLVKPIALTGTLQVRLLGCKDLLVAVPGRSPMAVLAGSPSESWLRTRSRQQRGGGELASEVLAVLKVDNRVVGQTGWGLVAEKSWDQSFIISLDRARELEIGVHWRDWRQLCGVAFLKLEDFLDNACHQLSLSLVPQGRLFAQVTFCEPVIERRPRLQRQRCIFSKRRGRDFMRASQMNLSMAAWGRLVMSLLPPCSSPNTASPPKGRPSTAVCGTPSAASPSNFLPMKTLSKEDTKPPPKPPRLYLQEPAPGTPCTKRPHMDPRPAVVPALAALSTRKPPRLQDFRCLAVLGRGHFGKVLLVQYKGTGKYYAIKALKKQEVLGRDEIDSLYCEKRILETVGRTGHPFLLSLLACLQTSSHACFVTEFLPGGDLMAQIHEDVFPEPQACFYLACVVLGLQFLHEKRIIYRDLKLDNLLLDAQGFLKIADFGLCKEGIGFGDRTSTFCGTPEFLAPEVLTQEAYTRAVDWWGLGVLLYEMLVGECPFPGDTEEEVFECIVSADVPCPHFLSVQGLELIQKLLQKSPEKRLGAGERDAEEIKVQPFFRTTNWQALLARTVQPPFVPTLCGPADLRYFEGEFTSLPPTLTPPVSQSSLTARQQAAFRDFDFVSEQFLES
Flag and GFP-fused PKN3 KD (mouse) (Q8K045, form named): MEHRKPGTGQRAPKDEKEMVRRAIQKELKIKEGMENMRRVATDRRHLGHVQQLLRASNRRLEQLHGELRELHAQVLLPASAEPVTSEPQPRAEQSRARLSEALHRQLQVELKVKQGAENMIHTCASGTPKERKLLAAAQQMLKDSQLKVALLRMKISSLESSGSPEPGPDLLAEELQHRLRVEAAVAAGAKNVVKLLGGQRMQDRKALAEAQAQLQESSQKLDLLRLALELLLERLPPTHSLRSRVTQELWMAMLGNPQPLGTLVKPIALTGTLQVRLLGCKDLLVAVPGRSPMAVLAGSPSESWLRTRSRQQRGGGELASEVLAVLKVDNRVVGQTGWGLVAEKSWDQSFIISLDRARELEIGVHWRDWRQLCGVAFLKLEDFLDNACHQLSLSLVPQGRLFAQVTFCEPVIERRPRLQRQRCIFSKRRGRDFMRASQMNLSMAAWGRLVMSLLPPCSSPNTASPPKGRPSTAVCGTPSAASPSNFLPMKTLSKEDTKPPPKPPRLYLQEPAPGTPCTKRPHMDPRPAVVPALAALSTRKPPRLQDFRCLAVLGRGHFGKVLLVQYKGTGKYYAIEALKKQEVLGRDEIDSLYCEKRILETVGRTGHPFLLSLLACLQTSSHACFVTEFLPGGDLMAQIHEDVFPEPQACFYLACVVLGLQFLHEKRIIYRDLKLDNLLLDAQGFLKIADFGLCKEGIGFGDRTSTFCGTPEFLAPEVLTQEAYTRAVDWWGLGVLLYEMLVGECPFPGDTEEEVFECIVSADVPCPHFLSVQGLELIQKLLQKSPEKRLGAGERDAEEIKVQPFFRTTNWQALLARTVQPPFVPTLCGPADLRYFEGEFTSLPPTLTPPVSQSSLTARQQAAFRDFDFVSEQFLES
Flag and GFP-fused PKN3 mPR (mouse) (Q8K045, form named): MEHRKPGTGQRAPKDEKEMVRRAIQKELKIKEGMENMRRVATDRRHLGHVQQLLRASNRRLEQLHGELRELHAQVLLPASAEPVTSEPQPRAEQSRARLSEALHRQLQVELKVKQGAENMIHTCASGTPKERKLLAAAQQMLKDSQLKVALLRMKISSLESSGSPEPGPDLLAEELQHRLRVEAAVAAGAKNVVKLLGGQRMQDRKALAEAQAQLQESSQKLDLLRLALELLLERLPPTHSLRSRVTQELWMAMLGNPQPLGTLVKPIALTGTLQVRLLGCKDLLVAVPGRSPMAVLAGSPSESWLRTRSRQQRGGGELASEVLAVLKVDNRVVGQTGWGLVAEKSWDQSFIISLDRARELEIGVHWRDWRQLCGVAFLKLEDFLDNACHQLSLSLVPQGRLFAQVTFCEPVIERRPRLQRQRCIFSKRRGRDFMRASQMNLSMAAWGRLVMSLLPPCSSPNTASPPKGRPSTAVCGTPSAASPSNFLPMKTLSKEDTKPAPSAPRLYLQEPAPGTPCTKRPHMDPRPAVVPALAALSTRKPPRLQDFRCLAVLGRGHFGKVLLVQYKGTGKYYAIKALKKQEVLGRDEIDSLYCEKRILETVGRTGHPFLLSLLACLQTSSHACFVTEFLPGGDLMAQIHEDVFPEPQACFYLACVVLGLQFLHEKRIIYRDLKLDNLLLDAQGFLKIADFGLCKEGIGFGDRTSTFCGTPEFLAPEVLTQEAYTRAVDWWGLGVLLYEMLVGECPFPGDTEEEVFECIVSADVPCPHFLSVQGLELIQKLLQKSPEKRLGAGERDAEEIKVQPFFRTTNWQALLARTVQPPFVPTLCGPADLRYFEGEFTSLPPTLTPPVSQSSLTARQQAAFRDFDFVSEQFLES

B1: p130Cas, endogenous in MDA-MB-231 cells (protein, UniProt P56945 1-870)
chain: MNHLNVLAKALYDNVAESPDELSFRKGDIMTVLEQDTQGLDGWWLCSLHGRQGIVPGNRLKILVGMYDKKPAGPGPGPPATPAQPQPGLHAPAPPASQYTPMLPNTYQPQPDSVYLVPTPSKAQQGLYQVPGPSPQFQSPPAKQTSTFSKQTPHHPFPSPATDLYQVPPGPGGPAQDIYQVPPSAGMGHDIYQVPPSMDTRSWEGTKPPAKVVVPTRVGQGYVYEAAQPEQDEYDIPRHLLAPGPQDIYDVPPVRGLLPSQYGQEVYDTPPMAVKGPNGRDPLLEVYDVPPSVEKGLPPSNHHAVYDVPPSVSKDVPDGPLLREETYDVPPAFAKAKPFDPARTPLVLAAPPPDSPPAEDVYDVPPPAPDLYDVPPGLRRPGPGTLYDVPRERVLPPEVADGGVVDSGVYAVPPPAEREAPAEGKRLSASSTGSTRSSQSASSLEVAGPGREPLELEVAVEALARLQQGVSATVAHLLDLAGSAGATGSWRSPSEPQEPLVQDLQAAVAAVQSAVHELLEFARSAVGNAAHTSDRALHAKLSRQLQKMEDVHQTLVAHGQALDAGRGGSGATLEDLDRLVACSRAVPEDAKQLASFLHGNASLLFRRTKATAPGPEGGGTLHPNPTDKTSSIQSRPLPSPPKFTSQDSPDGQYENSEGGWMEDYDYVHLQGKEEFEKTQKELLEKGSITRQGKSQLELQQLKQFERLEQEVSRPIDHDLANWTPAQPLAPGRTGGLGPSDRQLLLFYLEQCEANLTTLTNAVDAFFTAVATNQPPKIFVAHSKFVILSAHKLVFIGDTLSRQAKAADVRSQVTHYSNLLCDLLRGIVATTKAAALQYPSPSAAQDMVERVKELGHSTQQFRRVLGQLAAA
B2: p130Cas WT re-expressed in SrcF-transformed p130Cas-/- MEFs (SC cells) (protein, UniProt Q61140 1-874)
chain: MTVPNVLAKALYDNVAESPDELSFRKGDIMTVLERDTQGLDGWWLCSLHGRQGIVPGNRLKILVGMYDKKPVGPGPGPPATPPQPQPSLPQGVHAPVPPASQYSPMLPTAYQPQSDNVYLVPTPSKTQQGLYQAPGPNPQFQSPPAKQTSTFSKQTPHHSFPSPATDLYQVPPGPGSPAQDIYQVPPSAGIGHDIYQVPPSLDTRGWEGTKPPAKVVVPTRVGQGYVYEAAQTEQDEYDTPRHLLAPGPQDIYDVPPVRGLLPNQYGQEVYDTPPMAVKGPNGRDPLLDVYDVPPSVEKGLLSSSHHSVYDVPPSVSKDVPDGPLLREETYDVPPAFAKPKPFDPTRHPLILAAPPPDSPAAEDVYDVPPPAPDLYDVPPGLRRPGPGTLYDVPRERVLPPEVADGSVVDDGVYAVPPPAEREAPTDGKRLSASSTGSTRSSQSASSLEVVVPGREPLELEVAVESLARLQQGVSTTVAHLLDLVGSASGPGGWRGTSEPQEPPAQDLKAAVAAVHGAVHELLEFARGAVSNATHTSDRTLHAKLSRQLQKMEDVYQTLVVHGQVLDSGRGSPGFTPEDLDRLVACSRAVPEDAKQLASFLHGNASLLFRRTKAPGPGPEGSSSLHPNPTDKASSIQSRPLPSPPKFTSQDSPDGQYENSEGGWMEDYDYVHLQGKEEFEKTQKELLERGNIMRQGKGQLELQQLKQFERLEQEVSRPIDHDLANWTPAQPLVPGRTGGLGPSDRQLLLFYLEQCEANLTTLTDAVDAFFTAVATNQPPKIFVAHSKFVILSAHKLVFIGDTLSRQAKAADVRSQVTHYSNLLCDLLRGIVATTKAAALQYPSPSAAQDMVDRVKELGHSTQQFRRVLGQLAAA

Legend:
[1] = biological target: Flag and GFP-fused PKN3 KD (mouse) (mouse) (UniProt Q8K045); assay: co-IP; MDA-MB-231 cells transiently transfected with mouse Flag and GFP-fused PKN3 variants; immunoprecipitation with anti-Flag sepharose; blot with anti-p130Cas; 1% Triton lysis buffer
[2] = biological target: Flag and GFP-fused PKN3 mPR (mouse) (mouse) (UniProt Q8K045); assay: as above
[3] = biological target: Flag and GFP-fused PKN3 WT (mouse) (mouse) (UniProt Q8K045); assay: as above
[4] = biological target: Strep-PKN3 (StrepII- and Flag-fused mouse PKN3) (mouse) (UniProt Q8K045); assay: co-IP; SrcF-transformed p130Cas-/- MEFs re-expressing p130Cas, transfected with Strep-PKN3; precipitation with Strep-Tactin Superflow resin; blots with anti-p130Cas, anti-Src, anti-Actin

Binder	binding [1]	binding [2]	binding [3]	binding [4]
B1	binds	binds weakly	binds	–
B2	–	–	–	binds
